Source: paper PMC4336329 (PLoS ONE, 2015)
Among all 310,000 compounds or so, about 2,200 (0.71%) showed an effect of 50% or more. The effect is printed as a negative number. The list shows a part of the results.

These compounds were tested against human ether-à-go-go-related gene (hERG) potassium channel (human, UniProt Q12809) (assay: primary screen, population patch clamp on CHO cells stably expressing hERG).
human ether-à-go-go-related gene (hERG) potassium channel, sequence (Q12809 whole entry, looked up): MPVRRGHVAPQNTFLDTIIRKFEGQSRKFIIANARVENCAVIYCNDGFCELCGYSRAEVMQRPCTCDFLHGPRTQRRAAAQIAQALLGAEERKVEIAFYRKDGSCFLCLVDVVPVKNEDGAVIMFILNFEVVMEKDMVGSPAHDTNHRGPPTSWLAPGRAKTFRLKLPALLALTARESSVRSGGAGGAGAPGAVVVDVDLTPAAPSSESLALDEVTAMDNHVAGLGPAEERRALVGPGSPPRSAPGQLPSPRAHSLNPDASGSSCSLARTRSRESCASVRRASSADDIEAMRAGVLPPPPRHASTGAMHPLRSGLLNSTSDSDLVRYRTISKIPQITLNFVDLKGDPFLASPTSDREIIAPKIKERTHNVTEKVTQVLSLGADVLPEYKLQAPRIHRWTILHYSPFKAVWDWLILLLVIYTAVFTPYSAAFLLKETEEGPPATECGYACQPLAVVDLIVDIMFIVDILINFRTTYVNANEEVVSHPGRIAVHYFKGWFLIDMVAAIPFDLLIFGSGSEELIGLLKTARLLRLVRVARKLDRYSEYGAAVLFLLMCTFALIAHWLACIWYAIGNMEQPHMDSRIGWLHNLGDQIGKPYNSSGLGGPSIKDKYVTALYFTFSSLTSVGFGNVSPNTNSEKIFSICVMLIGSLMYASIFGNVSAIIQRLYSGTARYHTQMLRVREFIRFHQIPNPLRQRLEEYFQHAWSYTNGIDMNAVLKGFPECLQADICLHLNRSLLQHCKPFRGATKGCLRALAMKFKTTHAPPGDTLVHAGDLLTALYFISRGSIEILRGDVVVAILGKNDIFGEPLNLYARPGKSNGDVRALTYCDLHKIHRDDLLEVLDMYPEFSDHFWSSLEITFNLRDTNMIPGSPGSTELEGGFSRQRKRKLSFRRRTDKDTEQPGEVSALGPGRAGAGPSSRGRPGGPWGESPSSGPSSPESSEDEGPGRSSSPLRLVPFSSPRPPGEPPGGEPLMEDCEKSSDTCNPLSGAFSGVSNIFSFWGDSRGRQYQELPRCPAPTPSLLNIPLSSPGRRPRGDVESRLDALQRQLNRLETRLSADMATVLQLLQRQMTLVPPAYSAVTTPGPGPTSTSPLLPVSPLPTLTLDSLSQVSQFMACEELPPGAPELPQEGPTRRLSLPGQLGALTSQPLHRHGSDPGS

| Structure (SMILES) | hERG current change (%, negative = inhibition) at 1uM [%] |
| --- | --- |
| FC(F)(F)c1ccccc1/C=N/n1c(COc2ccccc2)n[nH]c1=S | 15.3 |
| CC(=O)OC(C(=O)NCc1ccc(F)cc1)c1ccccn1 (stereo not drawn) | 4.85 |
| CN(Cc1ccccc1)C(=O)CN(c1ccc(F)cc1)S(=O)(=O)c1ccc2c(c1)OCCO2 | 2.47 |
| O=C(NCCN1CCOCC1)C1CC(=O)N(c2ccc(F)cc2)C1 (stereo not drawn) | 1.56 |
| COC(=O)C1=C(c2ccc(Cl)c(C(F)(F)F)c2)C[C@@H]2CC[C@H]1N2C(=O)NCc1cc(C)oc1C(F)(F)F | 12.4 |
| O=C(NC(=S)Nc1ccccc1N1CCOCC1)c1cccs1 | 4.94 |
| CC(C)n1c(-c2ccccc2F)n[nH]c1=S | 4.41 |
| CCN1CCN(c2c(Cl)cccc2NC(=O)c2ccc(Br)o2)CC1 | -59.3 |
| CC(=O)Nc1ccccc1OCc1nnc(-c2ccccc2Cl)o1 | 17.2 |
| Cn1nc(-c2ccccc2)cc1NC(=O)c1cccs1 | 11.9 |
| CCOc1ccc(N(CC(=O)NCc2ccc(F)cc2)C(=O)c2snc(C(N)=O)c2N)cc1 | 15.2 |
| Cc1cc(C)c(S(=O)(=O)N2CCOC2CNC(=O)C(=O)NCCN(C)C)c(C)c1 (stereo not drawn) | 18.5 |
| Cc1ccc(CSc2nnc(-c3cccs3)n2C)cc1 | 4.05 |
| O=C(c1ccc(C#Cc2ccccc2)o1)N1CCN(c2ccccn2)CC1 | 8.85 |
| CC(=O)Nc1ccc(S(=O)(=O)N2CCC(C(=O)NCc3cccnc3)CC2)cc1 | 17.9 |
| COc1ccc(CNC2=CC(=O)CC(C)(C)C2)cc1 | 2.26 |
| Cc1c(C)n(CCc2ccccc2)c2ncnc(NCCO)c12 | -3.9 |
| COc1ccc(NC(=O)C2c3cc(OC)c(OC)cc3C(=O)N(C)C2c2cccnc2)cc1OC (stereo not drawn) | 11.8 |
| O=C1NC(Cc2c[nH]c3ccccc23)C(=O)N1Cc1ccc(CN2C(=O)NC(Cc3c[nH]c4ccccc34)C2=O)cc1 (stereo not drawn) | 13.9 |

| Structure (SMILES) | hERG current change (%, negative = inhibition) at 1uM [%] |
| --- | --- |
| Cc1ncc([N+](=O)[O-])n1CC(C)O (stereo not drawn) | 12.7 |
| C/C(=N/N=C(/N)SCc1ccccc1)C(C)(C)C.Cl | 13.4 |
| CC(=O)C1=C(C)NC(SCc2ccc(C#N)cc2)=C(C#N)C1c1ccco1 (stereo not drawn) | -4.3 |
| O=C(Cc1ccc(Cl)cc1)NCC(=O)N1CCN(Cc2ccccc2)CC1 | -5.46 |
| Cc1ccc(N/N=C/c2cccnc2)cc1.Cl | -2.1 |
| Cc1cc(OCc2cc(C(=O)N(C)CCCN3CCOCC3)no2)cc(C)c1Cl | -8.26 |
| Cc1cc(=O)[nH]c2ccc(S(=O)(=O)Nc3ccccc3)cc12 | 15.4 |
| CC(C)NC(=O)CSc1nncn1-c1ccccc1 | 13.2 |
| O=C(c1ccc(F)cc1)N1CCN2C(=O)c3ccccc3C12c1ccc(Cl)cc1 (stereo not drawn) | 5.84 |
| Cc1nc(SCc2ccccc2)c([N+](=O)[O-])[nH]1 | 19.1 |
| Cn1cnnc1SCC(=O)c1ccc2c(c1)OCCO2 | 0.814 |
| CCNc1ccc(S(N)(=O)=O)cc1[N+](=O)[O-] | -0.632 |
| CCOC(=O)c1c(NC(=O)CSc2nnc(CNc3ccc(C)cc3C)o2)sc(C)c1C | 15.6 |
| CC1CN(c2nnc(NC(=O)c3ccccc3)s2)CC(C)O1 (stereo not drawn) | 46.9 |
| O=C(O)c1ccc(S(=O)(=O)c2ccccc2)cc1 | 11.5 |
| CC(COc1ccccc1)N1CCC(CO)(CCc2ccccc2)CC1 (stereo not drawn) | -84.8 |
| Cc1ccc(CNC(=O)C2CC3Cn4c(nc5ccccc54)C3N2C)o1 (stereo not drawn) | 11.7 |
| COc1ccccc1C(=O)Nc1ccc2c(C)cc(=O)oc2c1 | 16.7 |
| CCCC1(CCC)NC(=O)N(CC(=O)c2cc(C)n(-c3ccc4c(c3)OCO4)c2C)C1=O | 4.19 |

| Structure (SMILES) | hERG current change (%, negative = inhibition) at 1uM [%] |
| --- | --- |
| Cc1cc(F)ccc1S(=O)(=O)Nc1ccccc1C(=O)NCc1cccnc1 | 9.07 |
| COc1ccc(OC)c(NC(=O)COc2ccc(Br)cc2)c1 | 12.9 |
| COc1ccc(-c2cc(C(F)(F)F)nc(SCc3cccc(C(=O)O)c3)n2)cc1 | 11.5 |
| COc1cccc(N2C(=NC(=O)c3ccccc3)SC3CS(=O)(=O)CC32)c1 (stereo not drawn) | 10.4 |
| N/C(Cc1nc(-c2ccc(Br)cc2)cs1)=N\O | 11.7 |
| COc1ccc(CCN(C)C2CCCN(C(=O)c3ccnn3C)C2)cc1OC (stereo not drawn) | -4.79 |
| Cc1ccc(C)n1-c1ccc(-c2nnco2)cc1 | 9.77 |
| Cc1ccc(C(=O)N2CC(C)CC(C)C2)cc1NC1=NC2CS(=O)(=O)CC2S1 (stereo not drawn) | 17.8 |
| O=C(Cc1c(F)cccc1Cl)c1ccc(O)cc1O | 8.6 |
| Cc1cc(C)cc(OCC(=O)Nc2ccc(F)cc2)c1 | 18.5 |
| COc1ccc2c(c1)c(C(=O)CN1CCN(c3ccccc3)CC1)c(C)n2C | 2.94 |
| CCC(=O)N1CCN(c2nc3ccc(Br)cc3s2)CC1 | -15 |
| COc1ccccc1NS(=O)(=O)c1cc(NC(=O)C2CC2)ccc1N1CCOCC1 | 19.5 |
| COc1cc(CNCCc2ccccc2)ccc1OCC(=O)NC(C)(C)C.Cl | 12.8 |
| Cc1noc(C(=O)Nc2c(C)n(C)n(-c3ccccc3)c2=O)c1Cl | 8.06 |
| COc1ccc(/C(C)=N/NC(=O)CNC(=O)c2cccnc2)cc1 | 13.9 |
| CCSc1nnc(NC(=O)CSc2nc3c(c(=O)n2C)SC(C)C3)s1 (stereo not drawn) | 0.407 |
| O=C(COC(=O)c1ccc(Br)cc1)NC(=O)NCc1ccccc1 | -3.36 |
| O=C(c1ccco1)N(CC1CCCO1)c1nc(-c2ccccc2)cs1 (stereo not drawn) | 16.4 |
